In a collection of fitness landscapes (doi:10.1126/science.1257360):
This is one part of the list.

B1: PhoQ; a variant is named by its letters at X, in order, P23837 (parent)
chain: MKKLLRLFFPLSLRVRFLLATAAVVLVLSLAYGMVALIGYSVSFDKTTFRLLRGESNLFYTLAKWENNKLHVELPENIDKQSPTMTLIYDENGQLLWAQRDVPWLMKMIQPDWLKSNGFHEIEADVNDTSLLLSGDHSIQQQLQEVREDDDDAEMTHSVAVNVYPATSRMPKLTIVVVDTIPVELKSSYMVWSWFIYVLSANLLLVIPLLWVAAWWSLRPIEALAKEVRELEEHNRELLNPATTRELTSLVRNLNRLLKSERERYDKYRTTLTDLTHSLKTPLXXLQXXLRSLRSEKMSVSDAEPVMLEQISRISQQIGYYLHRASMRGGTLLSRELHPVAPLLDNLTSALNKVYQRKGVNISLDISPEISFVGEQNDFVEVMGNVLDNACKYCLEFVEISARQTDEHLYIVVEDDGPGIPLSKREVIFDRGQRVDTLRPGQGVGLAVAREITEQYEGKIVAGESMLGGARMEVIFGRQHSAPKDE

Variants of: B1
Assay: enrichment ratio after two sorts for PhoP signalling (ratio (wild type AVST 3.29)); higher = more functional
Settings: with PhoP (E. coli)

Variant | enrichment ratio
MPLL | ≤ 0.25
KDPA | ≤ 0.25
NISP | ≤ 0.25
DRPS | ≤ 0.25
YQAD | ≤ 0.25
VMPQ | ≤ 0.25
YTPT | ≤ 0.25
IMQY | ≤ 0.25
HTTH | ≤ 0.25
IKMS | ≤ 0.25
WVTI | ≤ 0.25
LTQH | ≤ 0.25
FLYV | ≤ 0.25
WTQS | ≤ 0.25
IKPL | ≤ 0.25
RWQQ | ≤ 0.25
VLKV | ≤ 0.25
MTIT | ≤ 0.25
YDQI | ≤ 0.25
VGDW | ≤ 0.25
RGCN | ≤ 0.25
SMKF | ≤ 0.25
MFNN | ≤ 0.25
WAWW | ≤ 0.25

Variant | enrichment ratio
RKSW | ≤ 0.25
HLCV | ≤ 0.25
NYHC | ≤ 0.25
QGTR | ≤ 0.25
KEIG | ≤ 0.25
RMIN | ≤ 0.25
LNAK | ≤ 0.25
WTKF | ≤ 0.25
QTWF | ≤ 0.25
WWAR | ≤ 0.25
ARRM | ≤ 0.25
SCDM | ≤ 0.25
KVWM | ≤ 0.25
DCEG | ≤ 0.25
DVNH | ≤ 0.25
CFLY | ≤ 0.25
NEQK | ≤ 0.25
IPRH | ≤ 0.25
AKTF | 2.43
EYYY | ≤ 0.25
FHKE | ≤ 0.25
DDDC | ≤ 0.25
VMWW | ≤ 0.25
TPVN | ≤ 0.25

Variant | enrichment ratio
KNQR | ≤ 0.25
EENI | ≤ 0.25
VTYF | ≤ 0.25
QSCR | ≤ 0.25
HFID | ≤ 0.25
IMMP | ≤ 0.25
RWFC | ≤ 0.25
GAGL | ≤ 0.25
VQLM | 5.74
PGDH | ≤ 0.25
MQMI | ≤ 0.25
ENFW | ≤ 0.25
YAKG | ≤ 0.25
MPLH | ≤ 0.25
PFRS | ≤ 0.25
WMSQ | ≤ 0.25
HRNV | ≤ 0.25
NREF | ≤ 0.25
NNQH | ≤ 0.25
SVDS | ≤ 0.25
YRKH | ≤ 0.25
PEWV | ≤ 0.25
PMAV | ≤ 0.25
HPHG | ≤ 0.25

Variant | enrichment ratio
QFWY | ≤ 0.25
YYGP | ≤ 0.25
HEEM | ≤ 0.25
AMLD | 4.71
DVSE | ≤ 0.25
VRGE | ≤ 0.25
NTYN | ≤ 0.25
LLKV | ≤ 0.25
ETRY | ≤ 0.25
HRGH | ≤ 0.25
TQYE | 35.7
GHFD | ≤ 0.25
NWNR | ≤ 0.25
IHAT | ≤ 0.25
TRTL | 9.57
SNHG | ≤ 0.25
EHYY | ≤ 0.25
LFAI | ≤ 0.25
ECNP | ≤ 0.25
GEVI | 7.6
CSYP | ≤ 0.25
WCHR | ≤ 0.25
DNLI | ≤ 0.25
VPQS | ≤ 0.25

Variant | enrichment ratio
DTNR | ≤ 0.25
NWEC | ≤ 0.25
HSPR | ≤ 0.25
YRIS | ≤ 0.25
SFRW | ≤ 0.25
ALNK | ≤ 0.25
GVKQ | ≤ 0.25
QKCA | ≤ 0.25
KHSD | ≤ 0.25
DCDH | ≤ 0.25
FGMP | ≤ 0.25
TAYW | 2.46
TFRR | ≤ 0.25
KKVV | ≤ 0.25
GIHI | ≤ 0.25
TFKI | ≤ 0.25
RQHL | ≤ 0.25
RVVE | ≤ 0.25
SKMM | 24.1
GPSL | ≤ 0.25
YWPF | ≤ 0.25
RKFK | ≤ 0.25
SCNR | ≤ 0.25
NEYT | ≤ 0.25

Variant | enrichment ratio
FQKE | ≤ 0.25
MINV | ≤ 0.25
WKHF | ≤ 0.25
HFKF | ≤ 0.25
LIWW | ≤ 0.25
SERT | ≤ 0.25
IYSN | ≤ 0.25
CHVM | ≤ 0.25
GLHK | ≤ 0.25
YMVD | ≤ 0.25
NPKW | ≤ 0.25
PFWW | ≤ 0.25
SYWE | ≤ 0.25
ISDE | ≤ 0.25
FLEN | ≤ 0.25
ERWQ | ≤ 0.25
MGYM | 8.17
NEVA | ≤ 0.25
VQEY | ≤ 0.25
AKAA | 4.65
FDMV | ≤ 0.25
INPV | ≤ 0.25
EYHQ | ≤ 0.25
SGYG | ≤ 0.25

Variant | enrichment ratio
MHWV | ≤ 0.25
IATW | ≤ 0.25
QALI | 5.29
RRAE | ≤ 0.25
QPLF | ≤ 0.25
YDEA | ≤ 0.25
MCDF | ≤ 0.25
ICSF | ≤ 0.25
EMLV | ≤ 0.25
RMLK | 1.36
DPCF | ≤ 0.25
FKYA | ≤ 0.25
THIP | ≤ 0.25
LVEF | ≤ 0.25
TNQW | ≤ 0.25
TGIW | ≤ 0.25
VDFY | ≤ 0.25
EGDH | ≤ 0.25
MDWM | ≤ 0.25
RAEH | ≤ 0.25
RSNK | ≤ 0.25
DSPK | ≤ 0.25
IPGV | ≤ 0.25
FWPM | ≤ 0.25

Variant | enrichment ratio
NPGT | ≤ 0.25
LPPI | ≤ 0.25
MARR | ≤ 0.25
SWKV | ≤ 0.25
HLWF | ≤ 0.25
IWHM | ≤ 0.25
WQPL | ≤ 0.25
SYFR | ≤ 0.25
ECPL | ≤ 0.25
VYYH | ≤ 0.25
ALMV | 5.76
PHRW | ≤ 0.25
KIRQ | ≤ 0.25
FVWE | ≤ 0.25
WQQA | ≤ 0.25
YKFI | ≤ 0.25
HFCN | ≤ 0.25
SEPT | ≤ 0.25
HGNS | ≤ 0.25
PEPR | ≤ 0.25
ANYQ | ≤ 0.25
LGYH | ≤ 0.25
SGIV | 7.69
NEPQ | ≤ 0.25

Variant | enrichment ratio
HIYA | ≤ 0.25
MHWP | ≤ 0.25
SFQP | ≤ 0.25
YCMD | ≤ 0.25
RGVA | ≤ 0.25
KYHV | ≤ 0.25
WSLS | 0.37
RRYT | ≤ 0.25
WDWK | ≤ 0.25
RPWI | ≤ 0.25
IIMC | ≤ 0.25
FQIS | ≤ 0.25
NPCH | ≤ 0.25
KEMN | ≤ 0.25
GNLV | 11.9
RMHQ | ≤ 0.25
SQAG | 25.9
VLIW | ≤ 0.25
FSCP | ≤ 0.25
MYVH | ≤ 0.25
AHNR | ≤ 0.25
KKDT | ≤ 0.25
VIGN | ≤ 0.25
SMDS | ≤ 0.25

Variant | enrichment ratio
QPRD | ≤ 0.25
VKYF | ≤ 0.25
WFVI | ≤ 0.25
DETR | ≤ 0.25
AAPL | 0.392
RYCQ | ≤ 0.25
FQLL | 5.35
GRHN | ≤ 0.25
DAPE | ≤ 0.25
LDSL | ≤ 0.25
TEQE | ≤ 0.25
YMFF | ≤ 0.25
FCGP | ≤ 0.25
VHLA | ≤ 0.25
PLLY | ≤ 0.25
NLRS | ≤ 0.25
FWQA | ≤ 0.25
DNTS | ≤ 0.25
WQKF | ≤ 0.25
WFSN | ≤ 0.25
YHGM | ≤ 0.25
WKAR | ≤ 0.25
NNLT | ≤ 0.25
HRVR | ≤ 0.25

Variant | enrichment ratio
QAIG | ≤ 0.25
DLMK | ≤ 0.25
CIVI | ≤ 0.25
MNLW | ≤ 0.25
SMGL | 5.54
VWSK | ≤ 0.25
GWCI | ≤ 0.25
TPAR | ≤ 0.25
KCIK | ≤ 0.25
FLRH | ≤ 0.25
RQRL | ≤ 0.25
DAFG | ≤ 0.25
PPQD | ≤ 0.25
KSMK | ≤ 0.25
LPQH | ≤ 0.25
PEQC | ≤ 0.25
WETN | ≤ 0.25
HVMK | ≤ 0.25
STTS | 8.49
WKNG | ≤ 0.25
HEEV | ≤ 0.25
WNLQ | ≤ 0.25
LDTD | ≤ 0.25
LICK | ≤ 0.25

Variant | enrichment ratio
NGAW | ≤ 0.25
HVFQ | ≤ 0.25
FIWH | ≤ 0.25
KSCC | ≤ 0.25
WMFT | ≤ 0.25
EFEL | ≤ 0.25
MYDQ | ≤ 0.25
WFAL | ≤ 0.25
YASF | ≤ 0.25
NWCR | ≤ 0.25
RDYL | ≤ 0.25
PDEL | ≤ 0.25
WQDW | ≤ 0.25
LGRV | ≤ 0.25
GIAG | 15.6
SEQA | ≤ 0.25
MIHT | ≤ 0.25
KQQL | ≤ 0.25
STSL | 9.89
DLGD | ≤ 0.25
SEDW | ≤ 0.25
GFCN | ≤ 0.25
LLLY | ≤ 0.25
RWAI | ≤ 0.25

Variant | enrichment ratio
MAMF | 10.2
SHWL | ≤ 0.25
MAAS | 1.31
SYPI | ≤ 0.25
FTRW | ≤ 0.25
NGGR | ≤ 0.25
YCVH | ≤ 0.25
GAKC | ≤ 0.25
DKDL | ≤ 0.25
VGAI | 3.8
PPFP | ≤ 0.25
PHYA | ≤ 0.25
MRWV | ≤ 0.25
KILG | 1.13
RLQK | ≤ 0.25
NRPG | ≤ 0.25
NGTF | ≤ 0.25
DTIL | ≤ 0.25
